Here are results for 28 compounds from the antibiotic and cytotoxicity screens of Wong et al. (2023).

Test [1] has as its system HSkMC (human skeletal muscle cells). The experiment in a line: cytotoxicity call (relative viability < 0.9). The settings on record: 10 µM.
Test [2] relates to S. aureus RN4220. Kind of test: growth inhibition call (relative growth <= 0.2). The note with it: 50 µM.

The structures appear in SMILES notation. This is one part of the list.

In the case of `C[C@H]1CCCCO[C@H](CN(C)Cc2ccccc2)[C@@H](C)CN([C@@H](C)CO)C(=O)c2cc(NC(=O)Nc3ccccc3)ccc2O1`, the cytotoxicity call in test [1] is “inactive”. Besides, the growth inhibition call in test [2] was “inactive”.

In the case of `C[C@H](CO)N1C[C@H](C)[C@H](CN(C)S(=O)(=O)c2ccc(F)cc2)OCCCC[C@H](C)Oc2ccc(NC(=O)Nc3ccc(C(F)(F)F)cc3)cc2C1=O`, the cytotoxicity call in test [1] was “inactive”. For the same compound, in test [2], the growth inhibition call is “inactive”.

Consider `C[C@H](CO)N1C[C@H](C)[C@@H](CN(C)Cc2ccc(C(F)(F)F)cc2)Oc2c(NC(=O)Nc3ccc(C(F)(F)F)cc3)cccc2C1=O`, for which the cytotoxicity call in test [1] was “inactive”. The growth inhibition call in test [2] was “inactive”.

In the case of `C[C@@H]1CN([C@@H](C)CO)C(=O)c2cccc(NC(=O)Nc3cccc4ccccc34)c2O[C@H]1CN(C)S(=O)(=O)c1ccccc1F`, the cytotoxicity call in test [1] was “inactive”. The growth inhibition call in test [2] is “inactive”.

Consider `C[C@H]1CN([C@@H](C)CO)C(=O)c2cccc(NC(=O)Nc3cccc4ccccc34)c2O[C@@H]1CN(C)S(=O)(=O)c1cccs1`, for which the cytotoxicity call in test [1] is “active”. Moreover, in test [2], the growth inhibition call was “inactive”.

For `COc1ccc(O)cc1`, the cytotoxicity call in test [1] is “inactive”. Moreover, in test [2], the growth inhibition call was “inactive”.

For `C[C@@H]1CN([C@H](C)CO)C(=O)c2cc(-c3cccnc3)cnc2O[C@@H]1CN(C)Cc1ccc(-c2ccccc2)cc1`, in test [1], the cytotoxicity call is “inactive”. The growth inhibition call in test [2] was “inactive”.

For `C[C@@H]1CN([C@@H](C)CO)C(=O)c2cccc(NC(=O)c3ccc(-c4nccs4)cc3)c2O[C@@H]1CN(C)Cc1ccc(Oc2ccccc2)cc1`, the cytotoxicity call in test [1] was “inactive”. Moreover, in test [2], the growth inhibition call is “inactive”.

Take `Cc1noc(C)c1NC(=O)N(C)C[C@H]1OCCCC[C@@H](C)Oc2ccc(NC(=O)CCC(F)(F)F)cc2C(=O)N([C@H](C)CO)C[C@H]1C`: in test [1], the cytotoxicity call was “inactive”. The growth inhibition call in test [2] is “inactive”.

Take `COc1ccc(CN2C[C@@H](C)[C@@H](OC)CN(C)C(=O)c3cc(NC(=O)c4nc5ccccc5s4)ccc3OC[C@@H]2C)cc1`: the cytotoxicity call in test [1] is “inactive”. For the same compound, in test [2], the growth inhibition call was “inactive”.

Take `Cc1ccc(S(=O)(=O)Nc2ccc3c(c2)C(=O)N([C@H](C)CO)C[C@@H](C)[C@H](CN(C)C(=O)NC2CCCCC2)OCCCC[C@@H](C)O3)cc1`: the cytotoxicity call in test [1] was “inactive”. Besides, the growth inhibition call in test [2] was “inactive”.

Take `C[C@@H]1CN([C@@H](C)CO)S(=O)(=O)c2ccc(C#CC3CC3)cc2O[C@H]1CN(C)Cc1ccccc1F`: the cytotoxicity call in test [1] is “inactive”. The growth inhibition call in test [2] is “inactive”.

For the compound `Cc1cc2n(n1)CCN(C(=O)[C@H]1CC[C@@H](N)C1)C2`, in test [1], the cytotoxicity call is “inactive”. Further, the growth inhibition call in test [2] is “inactive”.

For the compound `C[C@H](CO)N1C[C@H](C)[C@@H](CN(C)C(=O)C2CCCCC2)OCCCC[C@H](C)Oc2ccc(NC(=O)Nc3ccccc3)cc2C1=O`, the cytotoxicity call in test [1] is “inactive”. Besides, in test [2], the growth inhibition call is “inactive”.

Take `C[C@@H]1CN([C@H](C)CO)C(=O)c2cc(NC(=O)CCN3CCOCC3)ccc2O[C@@H]1CN(C)Cc1ccccc1`: in test [1], the cytotoxicity call was “inactive”. In addition, in test [2], the growth inhibition call was “inactive”.

`COCCNC(=O)C[C@H]1CC[C@H]2[C@@H](COC[C@H](O)CN2C(=O)Nc2ccccc2OC)O1`: the cytotoxicity call in test [1] was “inactive”. In test [2], the growth inhibition call was “inactive”.

`CCN[C@H]1CCS(=O)(=O)C1`: the cytotoxicity call in test [1] is “inactive”. Also, the growth inhibition call in test [2] is “inactive”.

Take `Cc1ccc(S(=O)(=O)N(C)C[C@@H]2Oc3c(NS(C)(=O)=O)cccc3C(=O)N([C@@H](C)CO)C[C@H]2C)cc1`: the cytotoxicity call in test [1] was “inactive”. The growth inhibition call in test [2] was “inactive”.

Take `C[C@H](CO)N1C[C@H](C)[C@H](CN(C)S(=O)(=O)c2cn(C)cn2)Oc2ccc(NC(=O)Nc3ccc4c(c3)OCO4)cc2C1=O`: in test [1], the cytotoxicity call is “inactive”. Besides, in test [2], the growth inhibition call is “inactive”.

With `N=c1c(C(=O)NC[C@H]2CCCO2)cc2c(=O)n3ccccc3nc2n1CCCN1CCOCC1`, in test [1], the cytotoxicity call was “inactive”. Further, in test [2], the growth inhibition call is “inactive”.

As to `C[C@H]1CN([C@@H](C)CO)C(=O)c2cccc(NS(=O)(=O)c3ccc(Cl)cc3)c2O[C@H]1CN(C)Cc1ccc(C(=O)Nc2ccccc2N)cc1`, the cytotoxicity call in test [1] is “inactive”. In addition, the growth inhibition call in test [2] was “inactive”.

In the case of `O=C(O)CCCN1C(=O)CSC1=S`, in test [1], the cytotoxicity call was “inactive”. In test [2], the growth inhibition call was “inactive”.

For `CC(C)NC(=O)N(C)C[C@H]1OCCCC[C@@H](C)Oc2ccc(NC(=O)Nc3cccc4ccccc34)cc2C(=O)N([C@H](C)CO)C[C@@H]1C`, the cytotoxicity call in test [1] is “inactive”. Further, the growth inhibition call in test [2] is “inactive”.

In the case of `COc1ccc(NC(=O)N(C)C[C@@H]2OCCCC[C@H](C)Oc3ccc(NC(=O)c4ccccc4)cc3C(=O)N([C@H](C)CO)C[C@H]2C)cc1`, the cytotoxicity call in test [1] is “inactive”. Besides, in test [2], the growth inhibition call is “inactive”.

As to `C[C@@H]1CCCCO[C@H](CN(C)S(=O)(=O)c2ccccc2)[C@@H](C)CN([C@@H](C)CO)C(=O)c2cc(NC(=O)CCC(F)(F)F)ccc2O1`, the cytotoxicity call in test [1] was “inactive”. Further, the growth inhibition call in test [2] was “inactive”.

Take `C[C@H]1CN([C@@H](C)CO)C(=O)c2cc(C#CCN(C)C)cnc2O[C@H]1CN(C)S(=O)(=O)c1ccccc1`: in test [1], the cytotoxicity call is “inactive”. Also, in test [2], the growth inhibition call is “inactive”.

For `COCC(=O)Nc1ccc2c(c1)OC[C@H](C)N(C(=O)Cc1cccnc1)C[C@@H](C)[C@H](OC)CN(C)C2=O`, the cytotoxicity call in test [1] is “inactive”. The growth inhibition call in test [2] is “inactive”.

Regarding `COc1ccc(NC(=O)Nc2ccc3c(c2)C(=O)N([C@@H](C)CO)C[C@H](C)[C@@H](CN(C)Cc2ccc(Cl)c(Cl)c2)O3)cc1`, the cytotoxicity call in test [1] is “inactive”. The growth inhibition call in test [2] is “inactive”.
